Consider 83 compounds from PubChem BioAssay (NCI).

Values joined by “and” are separate entries in the source; they are usually repeats but may differ in a detail not shown here. Equal values may be shown once.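 All cell lines were grown in 96-well plates and treated with compound for 48 hours. GI50 is the concentration that inhibits growth by half. TGI: concentration producing complete growth inhibition.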

The test system of this experiment is NCI-H322M lung. Kind of experiment: NCI anticancer screen, dose series, 48 h.
Consider `CC1(C)[C@@H](NOCCCN)CC[C@]2(C)[C@H]3C(=O)C=C4[C@@H]5C[C@](C)(C(=O)O)CC[C@]5(C)CC[C@@]4(C)[C@]3(C)CC[C@@H]12`, for which the GI50 was 3.8 µM and the TGI turned out to be 15.4 µM.
The corresponding values for `C=C1C[C@H](O)[C@H](Br)C(C)(C)[C@@]12CCC(C)=C(Cl)C2` are 0.508 µM and 13 µM.
In turn, `COc1cccc(-c2cc(=O)c3cc(N4CCCCC4)ccc3[nH]2)c1` yielded a TGI greater than 100 µM.
`Cc1cc2c(cc1C)[n+](=O)c(C(=O)c1ccccc1)c(C(F)F)n2[O-]`: the GI50 is 16.6 µM and the TGI was found to be 66 µM.
For `O=C(NC1CCCCC1)NS(=O)(=O)c1ccc(N2N=C3c4ccccc4CC3C2c2ccc(Cl)cc2)cc1` (configuration not stated), the GI50 was 4.26 µM and the TGI was found to be 20.6 µM.
In the case of `CN(C)CC1CCCC/C1=N/O` (configuration not stated), the TGI is greater than 100 µM.
For the compound `OC(c1cc(C(F)(F)F)nc2c(C(F)(F)F)cccc12)C1CCCCN1` (configuration not stated), the GI50 was 3.77 µM and the TGI amounted to 14.4 µM.
`CCCOc1nc(N)c2cnn(C3CCCCO3)c2n1` (configuration not stated): the TGI is greater than 100 µM.
`Cc1ccc(S[C@@H](C)[C@@](O)(CF)CN(Cc2ccccc2)C(=O)C(F)(F)F)cc1` yielded a TGI greater than 100 µM.
Regarding `C=CC(=O)Nc1cc(Nc2nccc(-c3cn(C)c4ccccc34)n2)c(OC)cc1N(C)CCN(C)C`, the GI50 is 0.175 µM and 0.222 µM; the TGI was 5.33 µM and 2.34 µM.
Take `C/C=C/[C@@H]1O[C@@H]2COC(=O)C2=C[C@@H]1O`: the GI50 is 29.9 µM and the TGI is greater than 74.1 µM.
For `CCOC(=O)CCCSCCCC(=O)CCCSCCCC(=O)OCC`, the TGI was greater than 100 µM.
For `CCNC(=O)C#Cc1ccc2c(C(=Nc3ccc(CN(C)C)cc3)c3ccccc3)c(O)[nH]c2c1`, the GI50 was 0.293 µM and the TGI was greater than 7.94 µM.
Consider `CCOC(=O)c1ccc(-c2cc(C)no2)[nH]1`, for which the TGI is greater than 100 µM.
Compound `CN(C)C(=S)/N=c1\ssc(=S)n1C1CCCCC1` gave a TGI greater than 100 µM.
As to `COc1ccccc1CC(=O)C(O)(C(F)(F)F)C(F)(F)F`, the TGI is greater than 100 µM.
Take `O=[N+]([O-])c1cc([N+](=O)[O-])c(C(F)(F)F)cc1NN=C(c1ccc(O)cc1)c1ccc(O)cc1`: the GI50 is 8.2 µM and the TGI stood at 31.8 µM.
Take `O=S1C(=c2ccc(=C3Sc4ccccc4S3)cc2)Sc2ccccc21` (configuration not stated): the TGI amounted to 32.1 µM.
For the compound `COc1cc(/C=C2\CN(S(=O)(=O)c3ccc(C)cc3)C/C(=C\c3cc(CN4CCCC4)c(O)c(OC)c3)C2=O)cc(CN2CCCC2)c1O`, the GI50 was 1.56 µM and the TGI was 3.22 µM.
For `O=C1c2c(F)c(F)c(F)c(F)c2C(=O)N1c1ccc(F)cc1F` the same measures were 20.8 µM and 39.5 µM.
The compound `CCOC(=O)c1cc(-c2ccc(OC)cc2)c([N+](=O)[O-])n1C` had a TGI greater than 10 µM.
The same measure, in the same setting: the result for `CON(C)C(=O)C(C)N(Cc1ccccc1)Cc1ccccc1` (configuration not stated) reads greater than 100 µM.
Regarding `COCCn1cc(-c2nc(-c3cc4cccnc4[nH]3)cs2)c2cc(OC)ccc21`, the GI50 was 2.28 µM and the TGI was greater than 46.2 µM.
`O=[N+]([O-])c1ccc2nc(Nc3ccccc3)c(Nc3ccccc3)nc2c1` yielded a TGI of 13.6 µM.
On the same count and under the same terms, with `C[C@]12c3c4cc(NC(=O)C(=O)NCc5ccc(-c6ccccn6)nc5)cc3Oc3cc(NC(=O)C(=O)NCc5ccc(-c6ccccn6)nc5)cc(c31)OC1C=C(NC(=O)C(=O)NCc3ccc(-c5ccccn5)nc3)C=C(O4)C12` (some centres not stated) the figure was 55.4 µM.
Still for that read-out and setting: the result for `CC(N)/C(N)=N/O` (configuration not stated) reads greater than 100 µM.
`Fc1cc(-c2nnc3n2N=C(c2ccc(Cl)cc2)CS3)c(Cl)cc1Cl`: the GI50 was 17.5 µM and the TGI worked out at 33.4 µM.
Consider `COc1ccc(S(=O)(=O)n2c3c(c4ccccc42)[C@@H]2[C@@H](CCCN2C(=O)CS(=O)c2ccc(C)cc2)[C@H](Cl)C3)cc1` (some centres not stated), for which the TGI is greater than 100 µM.
Same read-out and setting: with `COc1ccc(/C=C/COC(C)=O)cc1OC` the figure was greater than 100 µM.
On the same count and under the same terms, with `O=c1cc(-c2ccc3c(c2)OCO3)[nH]c2cc3c(cc12)OCO3` the figure was greater than 100 µM; with `N=c1oc2ccccc2cc1C(=O)NC12CC3CC(CC(C3)C1)C2`, 76.3 µM.
In turn, `COc1cc2c(cc1O)[C@H](C)C(c1ccc(OC)c(OC)c1)O2` (some centres not stated) returned a TGI greater than 100 µM.
On the same count and under the same terms, with `O=C(Nc1c(O)[nH]c(=S)[nH]c1=O)c1ccccc1` the figure was greater than 100 µM; with `O=C1c2cccc3cc([N+](=O)[O-])cc(c23)C(=O)N1Nc1ccc([N+](=O)[O-])cc1[N+](=O)[O-]`, greater than 100 µM; with `CCOc1ccc(NC2=CC(=O)C(=O)c3ccccc32)cc1`, 17.9 µM.
In turn, `Cc1ccc(S(=O)(=O)N2C3C=CC(C3)[C@@H]2C(Cl)(Cl)Cl)cc1` (some centres not stated) displayed a TGI greater than 100 µM.
With `NC(Cc1ccccc1)C(=O)NC(Cc1ccccc1)NC(=O)C(Cc1c[nH]c2ccccc12)C(=O)O` (configuration not stated), the TGI was greater than 100 µM.
With `Nc1nc2[nH]cc(CCc3ccc(C(=O)N[C@@H](CCC(=O)O)C(=O)O)cc3)c2c(=O)[nH]1`, the TGI is greater than 100 µM.
Same read-out and setting: the result for `CC(C)C(NC(=O)Oc1ccccc1)C(=O)NC1c2c(Br)sc(Br)c2C(=O)C1O` (configuration not stated) reads 21.1 µM; that for `C=C(C)C(=O)O[C@@H]1C[C@@]2(C)O[C@@H]2C[C@H](O)/C(C)=C/[C@H]2OC(=O)C(=C)[C@@H]21`, greater than 100 µM; that for `Br[Se]c1ccccn1`, 32.6 µM.
`CN1CCN(C(=O)COc2ccc(C34CC5CC(CC(C5)C3)C4)cc2)CC1`: the GI50 is 17.3 µM and the TGI was found to be 43.5 µM.
`Clc1ccc2cccc3c2c1C1OC3c2ccccc21` (configuration not stated): the TGI is greater than 100 µM.
The same measure, in the same setting: with `CCOC(=O)c1csc(NC(=O)CN2CCCC2)n1` the figure was greater than 100 µM.
Turning to `CN(C)CC1CCC/C1=N/OC(=O)c1ccccc1` (configuration not stated), the TGI is greater than 100 µM.
For `O=c1[nH]c2cc(Cl)ccc2nc1/C(=N\Nc1ccccc1)C(O)c1ccc(Cl)c(Cl)c1` (configuration not stated), the TGI is greater than 100 µM.
As for `COc1cc2c(cc1OC)-c1cc(OC)c(OC)cc1C(CN(C)C)C2` (configuration not stated), the GI50 is greater than 10 µM and the TGI is greater than 10 µM.
For the compound `N#C/C(N)=C(\C#N)NC=NCCO`, the TGI is greater than 100 µM.
In the case of `O=C1/C(=C/c2ccco2)NC(=S)N1CN1CCCCC1`, the TGI was greater than 100 µM.
For `CCCCCCCCCCCCNC(=S)OC`, the TGI is 66.1 µM.
On the same count and under the same terms, with `COC(=O)c1cccc(C)c1C1CN=NC12Cc1cc(C)cc(C)c1C2=O` (configuration not stated) the figure was greater than 100 µM.
In the case of `COC(=O)c1cc2oc(/C=C3/SC(=S)N(NC(C)=O)C3=O)cc2n1C`, the GI50 is 20.6 µM and the TGI is 86.8 µM.
In turn, `C(=C/CCCN1O[C@@H](CCCCCCCCc2cccnc2)[C@H]2CCC[C@H]21)/CCCCCCCCCc1cccnc1` returned a TGI of 58.8 µM.
Same read-out and setting: the result for `C[C@@]1(O)CC[C@]2(C)C3CCCC3[C@H]12` (some centres not stated) reads greater than 100 µM.
`CC(=O)[O-].CC(=O)[O-].O=C(N/N=C/c1cc(Cl)cc(Cl)c1O)c1ccncc1.[Cu+2]` returned a TGI greater than 100 µM.
Same read-out and setting: with `CCOC(=O)CCC(NC(=O)C(N)Cc1ccc(N(CCCl)CCCl)cc1)C(=O)OCC` (configuration not stated) the figure was 23.6 µM.
`C[C@@H]1CC[C@H]2C(C)(C)[C@H]3C[C@@]12CC[C@@]3(C)O` registered a TGI greater than 100 µM.
Compound `COCCOCOC(CCCCO)c1cc(C)c(O[Si](C)(C)C(C)(C)C)c(C)c1` (configuration not stated) displayed a TGI of 27.1 µM.
On to `CCOC(=O)n1cc(C2=C(c3ccc(OC)c(OC)c3)COC2=O)c2ccccc21`, for which the GI50 was 0.843 µM and the TGI was greater than 100 µM.
On to `N#CCCC[Si]12OCCN(CCO1)CCO2`, for which the TGI was greater than 100 µM.
As for `NC(=S)N/N=C1\c2cc(Cl)ccc2-c2c1cc(Cl)cc2[N+](=O)[O-]`, the GI50 was 10.9 µM and the TGI was greater than 100 µM.
Compound `CCn1cnc2c(=S)nc(N)[nH]c21` yielded a TGI greater than 100 µM.
The compound `S=P1(Oc2ccccc2)NNP2(=NP(N3CC3)(N3CC3)=NP(N3CC3)(N3CC3)=N2)NN1` (configuration not stated) returned a TGI greater than 100 µM.
For the compound `COc1ccccc1NC(=O)c1cc2cc(Br)ccc2cc1O`, the GI50 is 2.66 µM and the TGI came to 9.84 µM.
Regarding `COc1cc(S(=O)(=O)Nc2ccc(-c3csc(N4C(=O)CSC4c4cccc(Oc5ccccc5)c4)n3)cc2)ccc1Cl` (configuration not stated), the TGI is greater than 100 µM.
For `COc1cc(-c2nc3sccn3c2-c2ccnc(NCCNS(=O)(=O)c3ccc(F)cc3)n2)ccc1F`, the GI50 is 4.13 µM and the TGI is greater than 100 µM.
For `COc1ccc(C2c3cc4c(cc3OC3(OC)COC(=O)C23)OCO4)c(OC)c1` (configuration not stated), the TGI was greater than 100 µM.
The same measure, in the same setting: the result for `O=C1c2cc3c(cc2CC12Cc1ccc4c(c1C2=O)CCC4)CCCC3` (configuration not stated) reads greater than 100 µM.
Same read-out and setting: with `O=C1CSC(=S)N1/N=C/c1ccc(Cl)c([N+](=O)[O-])c1` the figure was greater than 100 µM; with `COc1ccc(C(SCCO)(c2ccccc2)c2ccc(OC)cc2)cc1`, 13.5 µM.
As for `O=C1OCC2=C1C(c1cccc(Br)c1)c1cc3c(cc1N2CCO)OCCO3` (configuration not stated), the GI50 is 0.418 µM and the TGI was greater than 50 µM.
In turn, `Nc1ncc2c(n1)-c1ccccc1OC2N1CCCCC1` (configuration not stated) came in with a TGI greater than 100 µM.
`NC(=S)N/N=C\c1nccc2c(C(F)(F)F)cccc12`: the GI50 is 0.227 µM and the TGI is greater than 73.4 µM.
As for `O=C(NC1C=CCC2C(=O)N(c3ccccc3)C(=O)C12)OCc1ccccc1` (configuration not stated), the TGI is greater than 100 µM.
As to `COC1=CC(=O)C(C2(OC(C)C)OC(=O)C(Cl)=C2Cl)=CC1=O` (configuration not stated), the TGI was greater than 100 µM.
As for `O=C1OC(c2ccccc2)=N/C1=C\c1ccc([N+](=O)[O-])cc1`, the TGI was greater than 100 µM.
As for `COc1cc(-c2cccs2)sc1-c1cccs1`, the TGI is greater than 100 µM.
`COc1ccc(C2=CC(C(C)=C(C(N)=O)C(N)=O)C=C(c3ccc(Br)cc3)C2)c(OC)c1` (configuration not stated): the TGI was greater than 100 µM.
Same read-out and setting: the result for `COc1cc(OCCN(C)C)c2[nH]c(C(=O)N3CC(CCl)c4ccc(N)cc43)cc2c1` (configuration not stated) reads 11.9 µM.
On to `CC(=O)N[C@@H](Cc1ccc(OP(=O)(O)O)cc1)C(=O)N[C@H]1CCC(=O)N2CCC[C@@H](C(=O)Nc3cccc4ccccc34)N2C1=O`, for which the GI50 was greater than 25 µM and the TGI is greater than 25 µM.
Compound `CCCC/C=C/C=C/C=C/CCCCCCCC(=O)OCC(COC(=O)CCCCCCC/C=C/C1C=CC(CCCC)C(C(=O)O)C1C(=O)O)OC(=O)CCCCCCC/C=C/C=C/C=C/CCCC` (configuration not stated) (tested in a mixture with another compound) gave a TGI of 55.4 µM.
Same read-out and setting: with `CCOC(=O)C12OC(OCC)(CC1(OCC)OCC)C1(CC1)C2=O` (configuration not stated) the figure was greater than 100 µM.
Take `C=C1C(=O)O[C@H]2[C@H]1CC/C(CNC(=O)c1cc3ccccc3[nH]1)=C\CC[C@@]1(C)O[C@@H]21`: the GI50 is 10.8 µM and the TGI is 24 µM.
